# Test results taken from article PMC9911399, “Two distinct binding modes provide the RNA-binding protein RbFox with extraordinary sequence specificity”.
# Positions count from the first letter of the chain named. The list shows a part of the results.
# T1: RBFOX1 RRM RbFoxmut (Fox-RRM*) (Homo sapiens, UniProt Q9NWB1 109-208, R118D;E147R;N151S;E152T)
# T1 sequence: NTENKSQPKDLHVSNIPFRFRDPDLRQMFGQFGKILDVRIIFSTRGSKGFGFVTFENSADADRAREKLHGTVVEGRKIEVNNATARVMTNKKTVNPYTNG
# B1: UAAUUAA (DNA:RNA)
# RNA: GGGAGACCGGAAUUCAGAUUGUCCUAAUUAAUUAAAUCCCGUCGUAGCCACCA
# DNA 1: CAATCTGAATTCCGGTCTCCC
# DNA 2: TGGTGGCTACGACGGGATT
# B2: GCCGGAG (DNA:RNA)
# RNA: B1 RNA with U25G, A26C, A27C, U28G, U29G, A31G
# DNA 1: CAATCTGAATTCCGGTCTCCC
# DNA 2: TGGTGGCTACGACGGGATT
# B3: GAAACUU (DNA:RNA)
# RNA: B1 RNA with U25G, U28A, U29C, A30U, A31U
# DNA 1: CAATCTGAATTCCGGTCTCCC
# DNA 2: TGGTGGCTACGACGGGATT
# B4: CUACGGU (DNA:RNA)
# RNA: B1 RNA with U25C, A26U, U28C, U29G, A30G, A31U
# DNA 1: CAATCTGAATTCCGGTCTCCC
# DNA 2: TGGTGGCTACGACGGGATT
# B5: AAAGGCG (DNA:RNA)
# RNA: B1 RNA with U25A, U28G, U29G, A30C, A31G
# DNA 1: CAATCTGAATTCCGGTCTCCC
# DNA 2: TGGTGGCTACGACGGGATT
# B6: GAGUCAU (DNA:RNA)
# RNA: B1 RNA with U25G, A27G, U29C, A31U
# DNA 1: CAATCTGAATTCCGGTCTCCC
# DNA 2: TGGTGGCTACGACGGGATT
# B7: GAGAGCU (DNA:RNA)
# RNA: B1 RNA with U25G, A27G, U28A, U29G, A30C, A31U
# DNA 1: CAATCTGAATTCCGGTCTCCC
# DNA 2: TGGTGGCTACGACGGGATT
# B8: AGACAGU (DNA:RNA)
# RNA: B1 RNA with U25A, A26G, U28C, U29A, A30G, A31U
# DNA 1: CAATCTGAATTCCGGTCTCCC
# DNA 2: TGGTGGCTACGACGGGATT
# B9: GUUCAAA (DNA:RNA)
# RNA: B1 RNA with U25G, A26U, A27U, U28C, U29A
# DNA 1: CAATCTGAATTCCGGTCTCCC
# DNA 2: TGGTGGCTACGACGGGATT
# B10: CUGUCGG (DNA:RNA)
# RNA: B1 RNA with U25C, A26U, A27G, U29C, A30G, A31G
# DNA 1: CAATCTGAATTCCGGTCTCCC
# DNA 2: TGGTGGCTACGACGGGATT
# B11: CAACCGG (DNA:RNA)
# RNA: B1 RNA with U25C, U28C, U29C, A30G, A31G
# DNA 1: CAATCTGAATTCCGGTCTCCC
# DNA 2: TGGTGGCTACGACGGGATT
# B12: CCAGGGC (DNA:RNA)
# RNA: B1 RNA with U25C, A26C, U28G, U29G, A30G, A31C
# DNA 1: CAATCTGAATTCCGGTCTCCC
# DNA 2: TGGTGGCTACGACGGGATT
# B13: AGUCUUG (DNA:RNA)
# RNA: B1 RNA with U25A, A26G, A27U, U28C, A30U, A31G
# DNA 1: CAATCTGAATTCCGGTCTCCC
# DNA 2: TGGTGGCTACGACGGGATT
# B14: GUAGCAG (DNA:RNA)
# RNA: B1 RNA with U25G, A26U, U28G, U29C, A31G
# DNA 1: CAATCTGAATTCCGGTCTCCC
# DNA 2: TGGTGGCTACGACGGGATT
# B15: AUGAAAC (DNA:RNA)
# RNA: B1 RNA with U25A, A26U, A27G, U28A, U29A, A31C
# DNA 1: CAATCTGAATTCCGGTCTCCC
# DNA 2: TGGTGGCTACGACGGGATT
# B16: CCCAGGC (DNA:RNA)
# RNA: GGGAGACCGGAAUUCAGAUUGUCCCCCAGGCUUAAAUCCCGUCGUAGCCACCA
# DNA 1: CAATCTGAATTCCGGTCTCCC
# DNA 2: TGGTGGCTACGACGGGATT
# B17: UCGGUUC (DNA:RNA)
# RNA: B16 RNA with C25U, C27G, A28G, G29U, G30U
# DNA 1: CAATCTGAATTCCGGTCTCCC
# DNA 2: TGGTGGCTACGACGGGATT
# B18: GUUGUUC (DNA:RNA)
# RNA: B16 RNA with C25G, C26U, C27U, A28G, G29U, G30U
# DNA 1: CAATCTGAATTCCGGTCTCCC
# DNA 2: TGGTGGCTACGACGGGATT
# B19: UGAAGGU (DNA:RNA)
# RNA: B16 RNA with C25U, C26G, C27A, C31U
# DNA 1: CAATCTGAATTCCGGTCTCCC
# DNA 2: TGGTGGCTACGACGGGATT
# B20: UCAAUGG (DNA:RNA)
# RNA: B16 RNA with C25U, C27A, G29U, C31G
# DNA 1: CAATCTGAATTCCGGTCTCCC
# DNA 2: TGGTGGCTACGACGGGATT
# B21: GCCUCCC (DNA:RNA)
# RNA: B16 RNA with C25G, A28U, G29C, G30C
# DNA 1: CAATCTGAATTCCGGTCTCCC
# DNA 2: TGGTGGCTACGACGGGATT
# B22: GGUUGCC (DNA:RNA)
# RNA: B16 RNA with C25G, C26G, C27U, A28U, G30C
# DNA 1: CAATCTGAATTCCGGTCTCCC
# DNA 2: TGGTGGCTACGACGGGATT
# B23: UAGCAAU (DNA:RNA)
# RNA: B1 RNA with A27G, U28C, U29A, A31U
# DNA 1: CAATCTGAATTCCGGTCTCCC
# DNA 2: TGGTGGCTACGACGGGATT
# B24: ACAUCAC (DNA:RNA)
# RNA: B1 RNA with U25A, A26C, U29C, A31C
# DNA 1: CAATCTGAATTCCGGTCTCCC
# DNA 2: TGGTGGCTACGACGGGATT
# B25: GGCCUGA (DNA:RNA)
# RNA: B16 RNA with C25G, C26G, A28C, G29U, C31A
# DNA 1: CAATCTGAATTCCGGTCTCCC
# DNA 2: TGGTGGCTACGACGGGATT
# B26: AUAUUCC (DNA:RNA)
# RNA: B1 RNA with U25A, A26U, A30C, A31C
# DNA 1: CAATCTGAATTCCGGTCTCCC
# DNA 2: TGGTGGCTACGACGGGATT
# B27: UAGCCAC (DNA:RNA)
# RNA: B1 RNA with A27G, U28C, U29C, A31C
# DNA 1: CAATCTGAATTCCGGTCTCCC
# DNA 2: TGGTGGCTACGACGGGATT
# B28: AAGCUUA (DNA:RNA)
# RNA: B1 RNA with U25A, A27G, U28C, A30U
# DNA 1: CAATCTGAATTCCGGTCTCCC
# DNA 2: TGGTGGCTACGACGGGATT
# B29: GUUUGGU (DNA:RNA)
# RNA: B16 RNA with C25G, C26U, C27U, A28U, C31U
# DNA 1: CAATCTGAATTCCGGTCTCCC
# DNA 2: TGGTGGCTACGACGGGATT
# B30: CAUCUGA (DNA:RNA)
# RNA: B1 RNA with U25C, A27U, U28C, A30G
# DNA 1: CAATCTGAATTCCGGTCTCCC
# DNA 2: TGGTGGCTACGACGGGATT
# B31: CCGCGGC (DNA:RNA)
# RNA: B16 RNA with C27G, A28C
# DNA 1: CAATCTGAATTCCGGTCTCCC
# DNA 2: TGGTGGCTACGACGGGATT
# Molecular target: T1, RBFOX1 RRM RbFoxmut (Fox-RRM*)
# Assay: EMSA; HiTS-Eq, 1 nM pool, 10 min; buffer printed only for the single-RNA assays: 10 mM Tris pH 7.5, 150 mM NaCl, 3.4 mM EDTA, 0.001% NP-40, 30 C
# Conditions: tags: His6 N-terminal (pET28a); label: 5' 32P
# Summary of the method: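 Purified RbFox RRM, wild type or mutant, was incubated for 10 min in 50 µL with 1 nM of a 5′-radiolabelled RNA pool carrying 7 randomized nucleotides, whose flanks were annealed to DNA oligonucleotides, over a series of increasing protein concentrations. Unbound RNA was resolved on 8% native PAGE, cut out, reverse-transcribed, barcoded by PCR and sequenced on an Illumina HiSeq 2500. Relative association constants were derived from changes in read counts for each RNA species versus the control reaction and normalised to the cognate motif.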
row,Binder,binding signal
1,B1,0.0571 KA relative to UGCAUGU
2,B2,0.0788 KA relative to UGCAUGU
3,B3,0.0723 KA relative to UGCAUGU
4,B4,0.0878 KA relative to UGCAUGU
5,B5,0.0873 KA relative to UGCAUGU
6,B6,0.0946 KA relative to UGCAUGU
7,B7,0.0872 KA relative to UGCAUGU
8,B8,0.0698 KA relative to UGCAUGU
9,B9,0.0907 KA relative to UGCAUGU
10,B10,0.0693 KA relative to UGCAUGU
11,B11,0.0516 KA relative to UGCAUGU
12,B12,0.102 KA relative to UGCAUGU
13,B13,0.459 KA relative to UGCAUGU
14,B14,0.105 KA relative to UGCAUGU
15,B15,0.125 KA relative to UGCAUGU
16,B16,0.0852 KA relative to UGCAUGU

row,Binder,binding signal
1,B17,0.112 KA relative to UGCAUGU
2,B18,0.106 KA relative to UGCAUGU
3,B19,0.0671 KA relative to UGCAUGU
4,B20,0.0834 KA relative to UGCAUGU
5,B21,0.0539 KA relative to UGCAUGU
6,B22,0.141 KA relative to UGCAUGU
7,B23,0.058 KA relative to UGCAUGU
8,B24,0.116 KA relative to UGCAUGU
9,B25,0.171 KA relative to UGCAUGU
10,B26,0.0873 KA relative to UGCAUGU
11,B27,0.0907 KA relative to UGCAUGU
12,B28,0.126 KA relative to UGCAUGU
13,B29,0.285 KA relative to UGCAUGU
14,B30,0.0523 KA relative to UGCAUGU
15,B31,0.0909 KA relative to UGCAUGU
